# Assay results: the supplement of paper PMC8728848
# The list shows a part of the results.
# B1: MpL2 (Macrolepiota procera) (protein)
# chain: MSTQVSSGQTYKITNVKAGTVIDLSGEDNKSIIGYPYHSGKNQQWTFNWTGKAWTLRSASSGSYLGIEGTPADGTRLVAVNDPFEWHIWRDEANENAFRIFVPFTNYNLRLSGYGDTTPGTPVQLWWTWEGLHQTWTIDRP
# Key:
# Assay in all cases: glycan array binding signal (z-score within array); higher = stronger binding
# Settings in all cases: glycan notation: IUPAC condensed, linker removed; mutation: D109R
# Fuc(a1-2)Gal = target: Fuc(a1-2)Gal
# Outline: (§1)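 Glycan array binding is given as a within-array Z-score, which can be read as non-binding when negative. The arrays, 3228 of them, came from the Consortium for Functional Glycomics database and were retained only where the protein sequence was available. Z-scores were averaged across arrays of the same protein sequence at different concentrations or buffers and across linkers.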
# Fuc(a1-2)Gal(b1-3)GalNAc = target: Fuc(a1-2)Gal(b1-3)GalNAc
# Outline: as §1
# [1] = target: Fuc(a1-2)Gal(b1-3)GalNAc(a1-3)[Fuc(a1-2)]Gal(b1-4)Glc
# Outline: as §1
# [2] = target: Fuc(a1-2)Gal(b1-3)GalNAc(a1-3)[Fuc(a1-2)]Gal(b1-4)GlcNAc
# Outline: as §1
# [3] = target: Fuc(a1-2)Gal(b1-3)GalNAc(b1-3)Gal
# Outline: as §1
# [4] = target: Fuc(a1-2)Gal(b1-3)GalNAc(b1-3)Gal(a1-4)Gal(b1-4)Glc
# Outline: as §1
# [5] = target: Fuc(a1-2)Gal(b1-3)GalNAc(b1-4)[Neu5Ac(a2-3)]Gal(b1-4)Glc
# Outline: as §1
# Fuc(a1-2)Gal(b1-3)GlcNAc = target: Fuc(a1-2)Gal(b1-3)GlcNAc
# Outline: as §1
# [6] = target: Fuc(a1-2)Gal(b1-3)GlcNAc(b1-2)Man(a1-3)[Fuc(a1-2)Gal(b1-3)GlcNAc(b1-2)Man(a1-6)]Man(b1-4)GlcNAc(b1-4)GlcNAc
# Outline: as §1
# [7] = target: Fuc(a1-2)Gal(b1-3)GlcNAc(b1-2)Man(a1-3)[Fuc(a1-2)Gal(b1-3)GlcNAc(b1-2)Man(a1-6)]Man(b1-4)GlcNAc(b1-4)[Fuc(a1-6)]GlcNAc
# Outline: as §1
# [8] = target: Fuc(a1-2)Gal(b1-3)GlcNAc(b1-3)Gal(b1-4)Glc
# Outline: as §1
# [9] = target: Fuc(a1-2)Gal(b1-3)GlcNAc(b1-3)GalNAc
# Outline: as §1
# [10] = target: Fuc(a1-2)Gal(b1-3)GlcNAc(b1-3)[Fuc(a1-2)Gal(b1-3)GlcNAc(b1-6)]GalNAc
# Outline: as §1
# [11] = target: Fuc(a1-2)Gal(b1-3)GlcNAc(b1-3)[Gal(b1-4)GlcNAc(b1-6)]Gal(b1-4)Glc
# Outline: as §1
# [12] = target: Fuc(a1-2)Gal(b1-3)GlcNAc(b1-3)[Neu5Ac(a2-6)Gal(b1-4)GlcNAc(b1-6)]Gal(b1-4)Glc
# Outline: as §1
# [13] = target: Fuc(a1-2)Gal(b1-3)GlcNAc6S
# Outline: as §1
# [14] = target: Fuc(a1-2)Gal(b1-3)[Fuc(a1-4)]GlcNAc
# Outline: as §1
# [15] = target: Fuc(a1-2)Gal(b1-3)[Fuc(a1-4)]GlcNAc(b1-2)Man(a1-3)[Fuc(a1-2)Gal(b1-3)[Fuc(a1-4)]GlcNAc(b1-2)Man(a1-3)]Man(b1-4)GlcNAc(b1-4)GlcNAc
# Outline: as §1
# [16] = target: Fuc(a1-2)Gal(b1-3)[Fuc(a1-4)]GlcNAc(b1-2)Man(a1-3)[Fuc(a1-2)Gal(b1-3)[Fuc(a1-4)]GlcNAc(b1-2)Man(a1-6)]Man(b1-4)GlcNAc(b1-4)[Fuc(a1-6)]GlcNAc(b1-4)[Fuc(a1-6)]GlcNAc
# Outline: as §1
# [17] = target: Fuc(a1-2)Gal(b1-3)[Fuc(a1-4)]GlcNAc(b1-3)[Fuc(a1-3)[Gal(b1-4)]GlcNAc(b1-6)]Gal(b1-4)Glc
# Outline: as §1
# [18] = target: Fuc(a1-2)Gal(b1-3)[Fuc(a1-4)]GlcNAc(b1-3)[Gal(b1-4)GlcNAc(b1-6)]Gal(b1-4)Glc
# Outline: as §1
# [19] = target: Fuc(a1-2)Gal(b1-4)Fuc(a1-3)]GlcNAc(b1-2)Man(a1-3)[Fuc(a1-2)Gal(b1-4)[Fuc(a1-3)]GlcNAc(b1-2)Man(a1-6)]Man(b1-4)GlcNAc(b1-4)GlcNAc
# Outline: as §1
# Fuc(a1-2)Gal(b1-4)Glc = target: Fuc(a1-2)Gal(b1-4)Glc
# Outline: as §1
# Fuc(a1-2)Gal(b1-4)Glc6S = target: Fuc(a1-2)Gal(b1-4)Glc6S
# Outline: as §1
# Fuc(a1-2)Gal(b1-4)GlcNAc = target: Fuc(a1-2)Gal(b1-4)GlcNAc
# Outline: as §1
# [20] = target: Fuc(a1-2)Gal(b1-4)GlcNAc(b1-2)Man
# Outline: as §1
# [21] = target: Fuc(a1-2)Gal(b1-4)GlcNAc(b1-2)Man(a1-3)[Fuc(a1-2)Gal(b1-4)GlcNAc(b1-2)Man(a1-6)]Man(b1-4)GlcNAc(b1-4)GlcNAc
# Outline: as §1
# [22] = target: Fuc(a1-2)Gal(b1-4)GlcNAc(b1-2)Man(a1-3)[Fuc(a1-2)Gal(b1-4)GlcNAc(b1-2)Man(a1-6)]Man(b1-4)GlcNAc(b1-4)[Fuc(a1-6)]GlcNAc
# Outline: as §1
# [23] = target: Fuc(a1-2)Gal(b1-4)GlcNAc(b1-2)[Fuc(a1-2)Gal(b1-4)GlcNAc(b1-4)]Man(a1-3)[Fuc(a1-2)Gal(b1-4)GlcNAc(b1-2)Man(a1-6)]Man(b1-4)GlcNAc(b1-4)GlcNAc
# Outline: as §1
# [24] = target: Fuc(a1-2)Gal(b1-4)GlcNAc(b1-3)Gal(b1-4)GlcNAc
# Outline: as §1
# [25] = target: Fuc(a1-2)Gal(b1-4)GlcNAc(b1-3)Gal(b1-4)GlcNAc(b1-2)Man(a1-3)[Fuc(a1-2)Gal(b1-4)GlcNAc(b1-3)Gal(b1-4)GlcNAc(b1-2)Man(a1-6)]Man(b1-4)GlcNAc(b1-4)GlcNAc
# Outline: as §1
# [26] = target: Fuc(a1-2)Gal(b1-4)GlcNAc(b1-3)Gal(b1-4)GlcNAc(b1-3)Gal(b1-4)GlcNAc
# Outline: as §1
# [27] = target: Fuc(a1-2)Gal(b1-4)GlcNAc(b1-3)GalNAc
# Outline: as §1
# [28] = target: Fuc(a1-2)Gal(b1-4)GlcNAc(b1-3)[Fuc(a1-2)Gal(b1-4)GlcNAc(b1-6)]GalNAc
# Outline: as §1
# [29] = target: Fuc(a1-2)Gal(b1-4)GlcNAc(b1-3)[Fuc(a1-3)[Gal(b1-4)]GlcNAc(b1-6)]Gal(b1-4)Glc
# Outline: as §1
# [30] = target: Fuc(a1-2)Gal(b1-4)GlcNAc(b1-6)GalNAc
# Outline: as §1
# [31] = target: Fuc(a1-2)Gal(b1-4)GlcNAc6S
# Outline: as §1
binder,measurement,setting,value
B1,glycan array binding signal (z-score),Fuc(a1-2)Gal,-0.251
same,glycan array binding signal (z-score),Fuc(a1-2)Gal(b1-3)GalNAc,-0.246
same,glycan array binding signal (z-score),[1],-0.245
same,glycan array binding signal (z-score),[2],-0.263
same,glycan array binding signal (z-score),[3],-0.24
same,glycan array binding signal (z-score),[4],-0.257
same,glycan array binding signal (z-score),[5],-0.259
same,glycan array binding signal (z-score),Fuc(a1-2)Gal(b1-3)GlcNAc,-0.267
same,glycan array binding signal (z-score),[6],-0.212
same,glycan array binding signal (z-score),[7],-0.262
same,glycan array binding signal (z-score),[8],-0.257
same,glycan array binding signal (z-score),[9],-0.267
same,glycan array binding signal (z-score),[10],-0.226
same,glycan array binding signal (z-score),[11],-0.17
same,glycan array binding signal (z-score),[12],-0.235
same,glycan array binding signal (z-score),[13],-0.247
same,glycan array binding signal (z-score),[14],-0.259
same,glycan array binding signal (z-score),[15],-0.244
same,glycan array binding signal (z-score),[16],-0.251
same,glycan array binding signal (z-score),[17],-0.228
same,glycan array binding signal (z-score),[18],-0.099
same,glycan array binding signal (z-score),[19],-0.148
same,glycan array binding signal (z-score),Fuc(a1-2)Gal(b1-4)Glc,-0.245
same,glycan array binding signal (z-score),Fuc(a1-2)Gal(b1-4)Glc6S,-0.24
same,glycan array binding signal (z-score),Fuc(a1-2)Gal(b1-4)GlcNAc,-0.255
same,glycan array binding signal (z-score),[20],-0.267
same,glycan array binding signal (z-score),[21],-0.248
same,glycan array binding signal (z-score),[22],-0.232
same,glycan array binding signal (z-score),[23],-0.244
same,glycan array binding signal (z-score),[24],-0.273
same,glycan array binding signal (z-score),[25],-0.203
same,glycan array binding signal (z-score),[26],-0.264
same,glycan array binding signal (z-score),[27],-0.258
same,glycan array binding signal (z-score),[28],-0.236
same,glycan array binding signal (z-score),[29],-0.237
same,glycan array binding signal (z-score),[30],-0.267
same,glycan array binding signal (z-score),[31],-0.256
